The source gives no read counts; variants with many changes may rest on few reads.
B1: OR4K15 (parent)
chain: GUUAACGGUCAUAGGCCAUGGAAACUAGGAGCACCAUUUCGCUGCCAGUGAAGAAAUGAACAAAGAAAAUCUGGGCCAGGCAGGCAUCAAAAGAAAUAGUCUUGCGCUCAACCAGAAAGUCUGUAAUCAUUUUAAGGGUA

Variants of: B1
Experiment: self-cleavage, relative activity (ratio to wild type); higher = more cleavage; in vitro, sequencing; the parent is a self-cleaving ribozyme

Row | Variant | self-cleavage
1 | U38C A66G A116U A135G | 0.38
2 | A68G A82G A89G A94G | 0.43
3 | A33U A64G A78G A82G | 0.16
4 | A30G U70A A117U | 0.14
5 | A78U A90U U130C | 0.09
6 | G20C A64G A134G A135G | 1.87
7 | U43A A66U A78U | 0.51
8 | U72A G83A U132A | 0.29
9 | A22G A68U A69G G84A | 0.63
10 | U9C U19C A47G A94G A116G A125G U127A | 0.23
11 | A30G A52G A67G U108C | 0.04
12 | U3C U37C U49C | 0.67
13 | U12C A66U A92G A95G | 1.61
14 | U49C A55G A59G A118G | 1.1
15 | A18U U70C A117G | 1.18
16 | A11C A23G A90G A116C | 0.03
17 | A24G A68G A92G U102A | 0.35
18 | A18U U49A U72G A94G | 0.12
19 | A24G A96C U132C | 1.01
20 | U39A U57G A60C U103C | 1.45
21 | A59G A90G U108C | 0.03
22 | A23G A36U A91G | 0.49
23 | A22G A33G A90G U102C | 1.34
24 | U39C U57A A67G A68G U139G | 0.34

Row | Variant | self-cleavage
25 | A13U A18G A82G U127C A140G | 0.47
26 | U2C A67U A95G U102A U130C | 1.5
27 | A22G U70C U122C | 1.21
28 | U12C A22G A33C U108A | 0.12
29 | A68G U72C A95G U108A | 0.02
30 | A18G A30G U132A | 1.14
31 | A11U U38C A67C A117G | 2.14
32 | C76U A90G A92G | 0.17
33 | A51U A60G G138A | 1.29
34 | G74A A118G U133A | 0.14
35 | A36U U37C G119U | 1.38
36 | A11G A64G A95G | 1.11
37 | A18U U57A A67G A78G U102C | 0.26
38 | A60G A62G A92G G136A | 0.7
39 | A30G A55G U132C | 1.39
40 | A13U A36G A135U | 2.35
41 | U19C A52G A62G A64G C113U | 0.03
42 | U38C U70C A114U | 0.02
43 | U9C U37C U102A | 1.18
44 | A47C A82U U132C | 0.18
45 | A5G C6U A54U A55G A60G A96G U131C | 0.8
46 | A54U U70C A125G A126G | 0.1
47 | U37C U87C A92G | 1.67
48 | A22U A33G A95G U108A U130C | 0

Row | Variant | self-cleavage
49 | C10U A36U A86G | 1.12
50 | A13U A64G U130C | 1.1
51 | A52G A54G A55G A116G | 0.1
52 | A60G U122A G123A | 1.36
53 | U3C A23G A111G | 0.11
54 | U19C G83A U97A | 1.48
55 | U72A U87C U103C | 0.11
56 | A78U A82G A117G A118G U130C | 0.07
57 | U43A A55G A62G U122C | 1.71
58 | A13G U72C A111G | 0.11
59 | A51G A56G U127C | 0.7
60 | A22U A68G U108C | 0
61 | U43C A56G G106U | 0.03
62 | U57C A92G A116G A135U | 1.08
63 | A4G U9C A11G U57C A59G A92C | 1.13
64 | A24G A64G U130C | 0.92
65 | A22G A59G A68G A98G A111G | 0
66 | A30G A86G A116G | 1.46
67 | A24G G44A A64G A140C | 0.8
68 | U2C A55G A82U | 0.22
69 | A5G C40A A125U | 1.36
70 | A66G U100A A118C A140G | 0.63
71 | A5G A24G A56G U100C | 1.4
72 | C46A U72C A126U | 0.32

Row | Variant | self-cleavage
73 | U9G A69G A116G | 0.29
74 | U39C A78C A86U | 0.61
75 | A24U C32U U57C U87C A117G | 0.28
76 | U38C U70A U87C | 0.72
77 | A36U A69G A118G A134G A135G | 0.74
78 | A24U A91C A114G | 0.36
79 | A5U A94G U103C A118G | 0.41
80 | A30G U70C U72C U100C U108A | 0.02
81 | U43C A67G A89G A114U U131C | 0.02
82 | U43C A91G A140G | 1.55
83 | C40U A56G A86C A110U A125G | 0.24
84 | A22U A66G U102A | 0.91
85 | A13G U26C G48A A55G A56G U102C | 1.55
86 | G7U U43C A92U | 0.32
87 | U12C U43C U70C A111U A118G | 0
88 | A89G A95U U127A | 2.6
89 | A24G U49C U87C U103C | 0.32
90 | A47G A67C A82U A125G A134G | 0.04
91 | A47G A78U A125G | 0.09
92 | U12C C32U A116G U130C | 1.22
93 | U70A A117G A118G U130C | 0.15
94 | A68G C109U A111U | 0.09
95 | A5U A11G A18G U49C U102C | 1.36
96 | A11U A66G A86G U87C U130C | 0.45

Row | Variant | self-cleavage
97 | U26A A91U A126G | 1.67
98 | U3C U72A U87C | 0.68
99 | U26C A67C U130C | 0.74
100 | U9C A18G A52U U131A | 1.61
101 | A36U A110G A117C | 0.06
102 | U19A A33G A62G | 1.46
103 | U9A A24G C61U A92G | 1.12
104 | A22G A68G U108A | 0.02
105 | A30G A47G U108A | 0.03
106 | A36U A66G A68G A91G A116G C121A | 0.52
107 | A51G U70C G74A | 0.15
108 | A23G U39C A98U U108C | 0.01
109 | A59G U70C A135G | 0.13
110 | A33U U70C A92G U132C | 0.21
111 | U43C A95G A118G U131C | 2.5
112 | A47G U122C U132C | 1.04
113 | U9C A22G C71U G104A U122C U130C | 0.02
114 | A82G U97A U108C A118G | 0.02
115 | U26A A62U A78G | 0.3
116 | A11G A18U A23G U38C | 0.79
117 | U9C A62G A94G U108C A114G A126G | 0.01
118 | U49C A86U A110G A135G | 0.08
119 | C10A C16U A18C A51U U57C A96G | 1.24
120 | U3C U122C U130C U132C | 0.57

Row | Variant | self-cleavage
121 | A13G A52U A62G | 1.16
122 | A52U U103C U127C | 0.57
123 | U9C A82G A92G A126G | 0.37
124 | G21A A90G A118C | 0.43
125 | A82U A86G A91U | 0.2
126 | A23G U38C A67G U87C A91G | 0.58
127 | C45U A82G A91G A96G | 0.26
128 | U26C A47G A56G A59G A95G A140G | 0.57
129 | A59G A110G A129G | 0.14
130 | A30U U43C A56G | 1.98
131 | U9C A33G A114G A135G | 0.25
132 | A11G G75A A91U A114G | 0.1
133 | U39C A60G A116G | 0
134 | A69G U72C U102C | 0.35
135 | U39C A55G U72A A111G | 0
136 | A24G G58U G123A | 0.92
137 | U39C C77A U108C | 0.03
138 | A63G G106A A117G | 0.01
139 | G15C C35U A60G A118G U132A | 0.47
140 | A67G A95U U127C U131C | 0.6
141 | A4G A52G U122A | 0.39
142 | C76U A92G U133C | 0.11
143 | U39C A52G A90G U100C U122C | 1.39
144 | A69G A91G U100C | 2.06

Row | Variant | self-cleavage
145 | U9A A63G A66G U87C U102C A111G | 0.05
146 | A18U A69G U108A | 0.01
147 | A68G A94G A111G A118G U127A | 0.01
148 | A78C A82U A91G A111G | 0.02
149 | A18U A56G A78G A90G | 0.08
150 | A52G A67G A86U U131C | 1.38
151 | U2A A54G A55G A63G A67G A92G U122C | 0.74
152 | U38C A68G A78U A94G A96G | 0.58
153 | U43A A82G A90C U127A | 0.33
154 | A52G A54G A63G A82G A89G | 0.51
155 | A51U A90G U103G U108C | 0.01
156 | A18U A82G A129U U133C | 0.21
157 | C16A A54G C77U A111G | 0.02
158 | A5G U9C U130C | 0.51
159 | U9A A47U A117G | 0.59
160 | C34U A56G U103A | 0.16
161 | U39C U49C U70C A94G | 0.81
162 | U49C A69U A135G | 1.51
163 | U2A A18U A55G | 1.26
164 | U57C A82C U122A A126G | 0.07
165 | A30G U87A U133C | 1.55
166 | U39C A67G A117G U132A | 1.85
167 | U9G U87C U102C | 1.03

Source: the RNAGym collection of RNA variant scans (doi:10.7554/elife.90254)
